Results on 14 molecules are retold here after PMC12136788.

To fix the notation:
T1: UNK ZnF1-3 (human, UniProt Q9C0B0 31-174)
T1 sequence: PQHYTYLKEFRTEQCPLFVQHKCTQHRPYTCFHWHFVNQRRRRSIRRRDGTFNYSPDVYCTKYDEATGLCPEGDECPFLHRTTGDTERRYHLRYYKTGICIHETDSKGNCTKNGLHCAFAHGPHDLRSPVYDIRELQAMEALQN

B1: 79860198_79860318_120_CDS_ENSG00000163291_ENST00000515853|human|control|control (ssRNA)
RNA: GGGAGUUCUACAGUCCGACGAUCGAUACACAGCCUGGACGGCAGGUAGGCCCGGUAGCCGUCGGUGAUGUACGGGUUGUCCUUGAGGGACCCGGGGAUCUGCUCGUAGGUGUACAGGCGGAUGCCACGGGGCACCAGGACCGGCAACAGAGGAUUGAGCAUCA
B2: chr1:130485734:130485735:-_ENSMUSG00000045382_ENSMUST00000052172|mus_mus|mus_mus_mus_hu_False|68_88 (ssRNA)
RNA: GGGAGUUCUACAGUCCGACGAUCGAUGAAGGAGUCGAUGCUGAUCCCCACAUAAUAAGGCAGCCAACAGGCAAAGAAAGCCAGGAUGAGGAUGACUGUGGUCUUGAGGGCCUUGCGCUUCUGGUGGCCCUUGGAGUGUGACAGCAACAGAGGAUUGAGCAUCA
B3: chr16:94651144:94651145:+_ENSMUSG00000040785_ENSMUST00000117648|mus_hu|mus_mus_mus_hu_True|98_108 (ssRNA)
RNA: GGGAGUUCUACAGUCCGACGAUCAUUCUCUUGGAUCAAGUGACCGAUAACAUAGUCCACUGCUUCAUUUAGAAAAUUUCUGCUAGAAAAACAGGUUGUAUAGUCUUCUGUGCUCAAAACUUUCCAAGAAAGCAAUUCUUUGAGCAACAGAGGAUUGAGCAUCA
B4: 32955150_32955270_2354_CDS_ENSG00000060749_ENST00000399302|human|control|control (ssRNA)
RNA: GGGAGUUCUACAGUCCGACGAUCUUCCUGGACCUUGGACUCAUGCACCUUAAGUAUGAGAGGAUGUUGCUGCUUUAAGUCUUUAGUAUUCAACCUUAUUUGUGGAGUCUGUAUUAAAUUAGUUGAGUUCUUAAGAUCAAGGGUCAACAGAGGAUUGAGCAUCA
B5: chr1:66461122:66461123:+_ENSMUSG00000015222_ENSMUST00000114013|mus_mus|motif|central (ssRNA)
RNA: GGGAGUUCUACAGUCCGACGAUCUGGUGAUGGGAGAGGGACUGUGUACUUGUUGAACACACAGUAUCCCAUGUCUUCAAGUUGACGGUCUGGUUUUACAGUGACUGGGCUUUCAUCAGCGACAGGUGGCAAACUGGUACUACUCAACAGAGGAUUGAGCAUCA
B6: chr4:41607924:41607925:+_ENSG00000064042_ENST00000508501|hu_hu|FALSE|FALSE (ssRNA)
RNA: GGGAGUUCUACAGUCCGACGAUCCGUUCCGCUGUAGGAUGUGCAGCUGUUUGCUGCUUUUCCCAGCCAGUAAAUGGUAACUAAUACAUUUUUCAGCUUCCUACUAUAAUCAAGGCUCUUGACUGUUACUCUGUUGGAUGUAUCCAACAGAGGAUUGAGCAUCA
B7: 21121154_21121371_2886_CDS_ENSG00000141458_ENST00000269228|human|control|control (ssRNA)
RNA: GGGAGUUCUACAGUCCGACGAUCGAUGUCUAGCCGAUUUUUCUCUUGACGUUUAAUGUCUAACCCCAAGAGACUCACGAAACAGGUAAUCUGCAGAAGAAAGUCAAUGAAGACUGCCAAUCCCGCAAAGAGAGAGAAGGUGUGCAACAGAGGAUUGAGCAUCA
B8: chr4:34756745:34756746:-_ENSMUSG00000039967_ENSMUST00000047950|mus_hu|motif|central (ssRNA)
RNA: GGGAGUUCUACAGUCCGACGAUCUAUAUUUGGAUUUAUGACACUUUCCAUUGAGGACAACAAUGGAGUUGACACACUUGCGGAAUGAGCUGGAAAAAUGGGUGGCGAGACAUGCUGCAACUGGGCCGAACAAGCAGGAUUCCCCAACAGAGGAUUGAGCAUCA
B9: 66471820_66471940_916_CDS_ENSMUSG00000015222_ENSMUST00000077355|mouse|control|control (ssRNA)
RNA: GGGAGUUCUACAGUCCGACGAUCCAGGAUGCCAGAUUUGGGGGUUCCUGGUGUCCUGGGGUAGCUCGGGGUUCCCGGGGUGCCUGGGGUACGUGAAGAGUAGCUUGGGGGAGUUCCAGGGGUGAUUGCAGUUGAUCCAGGGGUCAACAGAGGAUUGAGCAUCA
B10: 60066986_60067106_270_3pUTR_ENSMUSG00000026977_ENSMUST00000102748|mouse|control|control (ssRNA)
RNA: GGGAGUUCUACAGUCCGACGAUCUCUAGAAUGAUAUGAAUCAUUUAAACUGGUUCCUCUGUUUCCAGACACCAUCCUAGUGCUUAAAGAGCCAGAGGGUUGAACAGAAAUUCUUCUUGGAAUCCUGGAAGGUUUAGACUCCAUCAACAGAGGAUUGAGCAUCA
B11: chr2:74706439:74706440:+_ENSMUSG00000027099_ENSMUST00000155844|mus_hu|motif|central (ssRNA)
RNA: GGGAGUUCUACAGUCCGACGAUCUGUAGCUUCAUCACACCACUGAAGAUACAGCUCUGCAGUCAACAGCAUAUUGUUGACGGAUUCCAUGUAAGCUUUCAUUUCUGCUUUUUGGACUUCCUCCAGCCCAUCACUAAGAGAAUGCAACAGAGGAUUGAGCAUCA
B12: chr1:113244022:113244023:-_ENSG00000155366_ENST00000369637|hu_hu|motif|central (ssRNA)
RNA: GGGAGUUCUACAGUCCGACGAUCUAGGCGUGGCUCCCAGAGCGCUGGGAGGGAGGGCCCGUGCCACCACCUCGGGGCGGGAAAACAAUGCAGUCCUGGGCAGGAGGGAACUGAAAAUGGGAGCCUUCAGCAUGGAGCCCUCAGCAACAGAGGAUUGAGCAUCA
B13: chr11:108017000:108017001:+_ENSG00000075239_ENST00000265838|hu_hu|FALSE|FALSE (ssRNA)
RNA: GGGAGUUCUACAGUCCGACGAUCAUUCACUUUUUGGGGAUCAAUCUCCAACAUUUUAAUGUUUGCUAGUACAACCAGACUAAAGGCUUCAUUUACUUCCCACAUUGCAAUAUCUUCUUUUUUCAAUCCCACAUCUUUAAGAACCAACAGAGGAUUGAGCAUCA
B14: chr8:74858975:74858976:-_ENSG00000154582_ENST00000284811|hu_mus|hu_hu_hu_mus_True|48_68 (ssRNA)
RNA: GGGAGUUCUACAGUCCGACGAUCGACCUUGUAGGUAAAAUACAUGCACACUUUUGAUAGCACAUGUGAAGGUAUCUCUCUAAAAUUGACCUCAUUGGUUUCAUUCUCAGCAAACUGACCUGGACCACUCAACAUAGCCUUUAUCAACAGAGGAUUGAGCAUCA

The list shows a part of the results.

The target in the assay is T1, UNK ZnF1-3. The assay is described as follows: nsRBNS (natural sequence RNA bind-n-seq); RBNS binding buffer (assumed for nsRBNS): 25 mM Tris pH 7.5, 150 mM KCl, 3 mM MgCl2, 0.01% Triton X-100, 500 ug/ml BSA, 20 U/ml SUPERase-In, 4 C; UNK is unkempt and MSI1 is Musashi-1; names of the RNAs are library labels; protein concentration not given here; high values mean tight binding.
B1 showed a binding signal of 0.61 enrichment R.
The molecule B2 came in with a binding signal of 1.3 enrichment R.
The molecule B3 had a binding signal of 0.549 enrichment R.
In the case of B4, the binding signal was 1.67 enrichment R.
In turn, B5 returned a binding signal of 0.666 enrichment R.
Molecule B6 showed a binding signal of 0.509 enrichment R.
As to B7, the binding signal stood at 1.06 enrichment R.
B8: the binding signal amounted to 2.89 enrichment R.
With B9, the binding signal is 2.3 enrichment R.
B10 displayed a binding signal of 0.801 enrichment R.
With B11, the binding signal turned out to be 0.518 enrichment R.
Under B12 stands 1.49 enrichment R.
Molecule B13 came in with a binding signal of 0.785 enrichment R.
For B14 the value was 0.879 enrichment R.
